The values that follow come from the supplement of paper PMC12632987.

The full ranking holds about 2,300 sequences; the median of “median log2 fold change of GCK-ALFA target abundance (FLAG IP / Myc IP barcode read proportion)” is about 0.095, and the lowest 2% start at about -0.47. Some of the results follow.

The labels stand for the following.
B1: LC3A_28_961 (protein)
chain: SALDKQLEAVLAEAKAAAAAGEARVFTINVPGTADEEDIEKVIEALKEIAEILKNVKGSAIIVNVDAGVKQEHIDKIADAAEEIEKKYPNITVIIALDED
B2: LC3A_free_39_2235 (protein)
chain: SMEELDRLIREVAEEGGIDYEYVREKMEEIQKVAELSDEQMLELVKALLEAVRAGADAREILEDILKLAKELKEEGKSPEEILEALLERVEDYRNLVPLD
B3: LC3A_28_1275 (protein)
chain: SPLDKSLAAALAKAKEAKAKKESAVITIDVPGTATQEDIDKVIAALEEIAEILKDIPNQAIVINVDGKVPQEYIDKIADKAEEIEKKYPNITVIIALGEE
B4: LC3A_28_954 (protein)
chain: SALEKQLAAVLAEAREAAARGEARVFTITVPGTADEEDIEKVIEAMEEIAELLKDIPGSAIVINVEAGVKQEHIDKLIDKAEEIEEKYPNVTVIIALDED
B5: LC3A_28_944 (protein)
chain: MTIEEEIEKALKEAKEAKAKKEPAVITITVKGDATEEEIEKVIETIKEIAELLKDIKGSAIIVDVEKGVKEEHINKLLDTLDEIEKKYPNISAIMALDED
B6: LC3A_3_1773 (protein)
chain: MEELLARFEEKLRAAGFSEEVIKEALAAIKTFLEKGREEVAETFLELMLEAKDLSEEKLLVMARMAKELAEESKVSEEELIKELKRLFESIAGIEELDEE
B7: LC3A_free_8_2499 (protein)
chain: NVQEAVQKILEALDQLEEDVEKLGKELNLDPLDVNELLLEIGSLIAEVISLKDAPIEEIKKATLEGMKEILELAKKIHPELAKLVEKYTKKIEEIFKEAE
B8: LC3A_28_1048 (protein)
chain: SDLKKNAEEAIKEAEELAKKGEEAVVTINVGEIDTETAEKIVKETLERLAKISKEYGGIKISVVINFDGDQETFDAIAKAAEEAEKKNPNLTVIIAYPDK
B9: LC3A_127_212 (protein)
chain: EEKKLLEEALEIAEKALEAVKKIPEEGEKALKEAIELLKKLIELLEKVPSLKEAAEDAKQALEQLKKLPELNEADREEALEHIEMILEGILIEIESELDK
B10: LC3A_28_1193 (protein)
chain: SLADEAIAALRAQAAEALAKGADEVLTVRITSSMSLEDVERITAAMREEAERLASVPSVTIVVDVESGVSQESIDLVAETGEEIEARYPNVTVIIALDED
B11: LC3A_28_1139 (protein)
chain: SALVEAAKAQIRADAEADKDEPEVLLRVTVTSEMTVEQAKEIMAEVERVVEELKDKEKIYIVVDATEPISQEVLDTIVEELDRIEKKFPNVSSIIALPED
B12: LC3A_132_260 (protein)
chain: SEELLEEALKELKELLDKIVELLAKGEDPWPAVKELDEKAREYAEKLSLEETEELAEEVEEYARRLFEERLDPNDEEARRTLDIIEMLLDGVLIEKELRE
B13: LC3A_45_1954 (protein)
chain: MYVAEVSVLVPEAEFDRAVAVLREEAARLREERGLEVVIDEAALAAARAEAKEQGEALVTVTVRSERKDDALDGAVEIEDALEREMSPAVASIISIKEEP
B14: LC3A_3_1908 (protein)
chain: AEEKIEELRELAKKLGHSEEAIALAEEAARLLLENGNEEGFELLLEAVKALAKLSEADQIAFLRDLLAELKENKDDKEAQLKVAEDFLKLAKNAAEIEEI
B15: LC3A_28_830 (protein)
chain: SKIEERIAKFKAEAEAAKASQEPATLTITVTSEDTVEEAKKIAEAMKEEAEKLKDVPDIGIVIDTDGKIDPEVLKILTDTADEIEEKYPNVTVIIALPEE
B16: LC3A_28_1012 (protein)
chain: MSLIEATKKEAKAAIEEAKKGEDAFLEVTITEEATEEEVKEVLKIIEETAEEISKIPNVKLYVVIDFDGSQEKLDIITDRMEEIEKKYPNVSVVIAYDEK
B17: LC3A_free_46_2358 (protein)
chain: YKAEIDIDLLHEDKEVLEKAVEEIEKAAREIAEKYGLKVEIEKEFEKLPDGSYYARIRITLEGEDKEKVEEAVNELINEIDKISKKYDVASIISYEIEEK
B18: LC3A_3_1607 (protein)
chain: SEELVERQLERLREAGFSEEVLEAARRALTALAEKGFFEAAETLTEELLEAKDLPEEVLVDTLEEILYKVENEDLDEEEVIELIKEEFRVARLEAEIEEL
B19: LC3A_28_687 (protein)
chain: SALSERLLAQVKKAEEELLAEDGATVTITIEEPLTPEETEALVKALKEMAKKIKDKKNVSIIISLSRAVSQESIDALADAAEEIEKEYPNITVIIALEER
B20: LC3A_28_1088 (protein)
chain: SALEAQLAAALAEARAARAAGEEVVLEITVDGTATEEDIAKLKAALAEIAAIARELPALAVVINLTGPNAQEKATILSTFAEELEAEVPNLTVIIALDED
B21: LC3A_28_1281 (protein)
chain: SEIEEEIERAIKEAKEAKEKGEPAVIEIEVPGDATEEEIEKVIKGLEEIAEILKDIPNQAIVINVDSGVKEEHIDKLVDKAEEIEEKYPNVTVIIALDED
B22: LC3A_3_1392 (protein)
chain: FEEIKKEAEETLKKFGRSEEVIEKTKEVLDALEEKGYLEAAKTLLEELKKMKDLSDEILLDFLEDVLEYVETNDASEEEVVEFIKEEARIAKNEGEIIEL
B23: LC3A_3_1687 (protein)
chain: MEELVEEVLELLREQGLSEETLEAAERLLEALKERGYEEAIRELLEAARRLKDAPSEEWKWMFEDLLHLLETEDLSEEEVVEEIRREARVIESALEIEEL
B24: LC3A_free_8_2504 (protein)
chain: MNQKVRDAAVEGLDELEEELVEKAKELGLSRLDILEIELEVGSVIAEIHSLADASPEEILKATEEGLKEIIELAKELSEELAKLAEEKSKEILERLKALL
B25: LC3A_132_297 (protein)
chain: GEEKAKELKKKIKELVEEAKKNIDDEEKVEELLEKIEELIKKAEKELSPELLAKVMEEAAELLWELSQEFLKAGKEHLAMLADGLAIYAESLALRAKEKI
B26: LC3A_127_182 (protein)
chain: SKLEKAKELMRKIAELFKELEKNKGDKEKELKLLKEAIELAKEAAKLLPEIKDDMEDIIKLAEQIKKMIEEGKEDKEEKEDLLELAESTAELAEARLELE
B27: LC3A_127_192 (protein)
chain: ELEEVLKKLIELARKASELLDDPNADPEEIKKLLEEALKAAKKAVELDPSTQPILEDMEQAKELFEQYLAASPEQQEELREQLQLLLDGIEIEAESKLLK
B28: LC3A_28_750 (protein)
chain: MNIADNVAAAIAEAKAAAAKGEEATITITVPDGATEEDIETAIKGLEEIAEIAKDMPALSIVIDVDSGVSEEHLNKLAEKGEELEEKYPNVTVIIALDEE
B29: LC3A_102_133 (protein)
chain: EVERLLKEALEELERRLEEYFEEHPEYSEEERERALELGRRALEAAAEDAVTLEQHGFSDIYAEDRMLEALEELRRIDPRLAEITREAIERLRKRIAALF

The test deals with MAP1LC3A, Q9H492. The test is described as follows: median log2 fold change of GCK-ALFA target abundance (FLAG IP / Myc IP barcode read proportion) (log2 ratio); each designed protein is fused to an ALFA-tag nanobody in HEK293 cells to bring the named protein to FLAG-tagged glucokinase (GCK); Myc marks an untargeted standard; higher = target protein stabilised (more abundant). To be noted: target protein: 3xFLAG-MCP-GCK-ALFA reporter; HEK293 landing pad (RPLP). Summed up: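 The readout is target abundance, the per-binder median log2 ratio of FLAG to Myc barcode read proportions. It came from HEK293 landing-pad cells carrying a recombined ALFA-nanobody-fused binder library, induced with 2 μg mL^−1 doxycycline and transfected with a plasmid for a FLAG-tagged target and a Myc-tagged standard. After 48 h, lysates were immunoprecipitated with anti-FLAG and anti-Myc, and circular RNA barcodes were reverse transcribed, amplified and sequenced. Each barcode needed a proportion of at least 10^−7 in both replicates and each binder at least 3 barcodes per replicate, a pseudocount of 10^−6 was added, and the replicates were pooled.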
With B1, the “median log2 fold change” value was 0.13. As for B2, the “median log2 fold change” value was -0.103. Regarding B3, the “median log2 fold change” value turned out to be 0.216. Next, B4: 0.125; B5: -0.897; B6: 0.23.

As for B7, the “median log2 fold change” value stood at 0.209. Turning to B8, the “median log2 fold change” value is -0.215. Turning to B9, the “median log2 fold change” value is 0.184. B10: the “median log2 fold change” value worked out at 0.169. As for B11, the “median log2 fold change” value was 0.196. As for B12, the “median log2 fold change” value is -0.243. As to B13, the “median log2 fold change” value was -0.301.

B14: the “median log2 fold change” value was 0.381. Consider B15, for which the “median log2 fold change” value stood at 0.132. Consider B16, for which the “median log2 fold change” value is -0.527. Regarding B17, the “median log2 fold change” value was -0.026.

Turning to B18, the “median log2 fold change” value is 0.146. In the case of B19, the “median log2 fold change” value came to 0.252. The result for B20 reads -0.0649; that for B21, -0.286.

For the molecule B22, the “median log2 fold change” value turned out to be 0.0991. For B23, the “median log2 fold change” value amounted to 0.164.

For B24, the “median log2 fold change” value was -0.195. Regarding B25, the “median log2 fold change” value was 0.131. Regarding B26, the “median log2 fold change” value was found to be 0.197. Consider B27, for which the “median log2 fold change” value was 0.194. As to B28, the “median log2 fold change” value was 0.03. For B29, the “median log2 fold change” value is -0.111.
